Hit rate of the full screen: of about 410,000 compounds, about 7,200 (1.8%) were called active. The inconclusive results got no clear call from the source; some entries with a clear call stand among them for comparison. The call rests on the fitted dose curve; in most records, active means well fitted activation curve with a large enough effect; inconclusive means small, poorly fitted or top-dose-only effect, or another doubt; inactive means no such curve, though single readings can be large or run the other way. No potency is given beside an inconclusive call; the fits are too rough.
Experiment: qHTS of TDP-43 Inhibitors; further: nearly all actives have a fitted effect of over 50% in size
Conditions: TDP-43 expressing yeast growth rescue, BacTiter-Glo, 24 h; series mostly up to 46.1 µM
Outline: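 Yeast expressing TDP-43 (pregrown in raffinose, seeded at OD600=0.02 in galactose medium) exposed to compounds 24 hr at 30 deg C. Growth read by BacTiter-Glo luminescence; rescue of toxicity appears as increased signal.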
Potency means the concentration at half of the fitted maximal effect; tags describe the fitted curve by direction and shape.

| Structure (SMILES) | Potency |
| --- | --- |
| CC[n+]1ccc(/C=C/c2ccc(N(C)C)cc2)c2ccccc21 | inactive |
| COc1ccc(-c2noc(N3CCC(C(=O)N4CCN(c5ccccc5OC)CC4)CC3)n2)cc1 | active: 28.2 µM |
| Cc1noc(C)c1CSc1nnc(-c2c[nH]c3ccccc23)n1-c1ccc(Cl)cc1 | inactive |
| CCCC(=O)c1cc(F)c(N2CCN(C(=O)OCC)CC2)cc1C | active: 15.8 µM |
| Cc1cccc(C2=NN(c3ccccc3)[C@@H](C(=O)N3CCOC3=O)[C@@H]2c2ccc(F)cc2)c1 | inactive |
| Cc1ccc(NS(=O)(=O)c2ccc(-c3cnc(C4CC4)o3)cc2)c(C)c1 | active: 28.2 µM |
| CCc1nc2nc(C)cc(Nc3cc(Cl)ccc3C)n2n1 | inconclusive [activator, single point] |
| CCc1ccc(CNC(=O)c2ccc3c(Cl)c4c(nc3c2)CCCC4)cc1 | inconclusive [activator, full curve] |
| NC(CO)c1csc(NC(=O)Nc2cccc(Cl)c2)n1 (centres undefined) | inconclusive [activator, partial curve, poor fit] |
| Cc1nc2cc(C(=O)O)ccc2s1 | inconclusive [activator, single point] |
| CCCCN(C)CCNC(=O)c1ccc(Cn2c(=O)[nH]c3cc(OC)c(OC)cc3c2=O)cc1 | inactive |
| CC1CCC(NC(=O)c2cc(S(=O)(=O)N3CCCCC3)c[nH]2)CC1 (centres undefined) | inconclusive [activator, partial curve, poor fit] |
| COc1ccc(C(=O)Nc2ccccc2N2CCCCC2)cc1[N+](=O)[O-] | active: 17.8 µM |
| COc1ccc(-c2nnc(SC(C)C#N)o2)cc1 (centres undefined) | inconclusive [activator, partial curve] |
| COc1ccccc1N1CCN(CCS(=O)(=O)c2cc(Cl)ccc2Cl)CC1 | inconclusive [activator, single point] |
| CCOc1ccc(-c2cn(S(=O)(=O)c3cccc4nsnc34)nc2N)cc1 | inconclusive [activator, partial curve, poor fit] |
| CCOC(=O)Cc1nnc(NC(=O)c2ccco2)s1 | inactive |
| COc1ccc(S(=O)(=O)N2CCCCC2)cc1NC(=O)C1COc2ccccc2O1 (centres undefined) | inconclusive [activator, single point] |
| Cc1cc(N2CCN(c3cccc(C)c3C)CC2)n2cnnc2n1 | active: 22.4 µM |
| O=C(Nc1ccc(Br)cc1)Nc1cnccn1 | inconclusive [activator, partial curve, poor fit] |
| Nc1ccc(N2CCN(c3ccccc3)CC2)c(F)c1 | active: 22.4 µM |
| Cc1cccnc1C(NC(=O)C1CCN(CCOc2ccc(Cl)cc2Cl)CC1)c1ccc(Cl)cc1 (centres undefined) | inconclusive [activator, partial curve] |
| C[C@@H]1CN([C@H](C)CO)C(=O)CCCn2cc(nn2)CO[C@H]1CN(C)C(=O)Nc1ccc2c(c1)OCO2 | inconclusive [activator, partial curve] |

| Structure (SMILES) | Potency |
| --- | --- |
| COc1ccc(C(=O)NNC(=O)Cc2ccc([N+](=O)[O-])cc2)cc1 | inconclusive [activator, partial curve] |
| Cc1oc2ncn(CC(C)C)c(=O)c2c1C(=O)N1CCN(c2ccc(F)cc2)CC1 | inconclusive [activator, full curve, poor fit] |
| Cc1ccc(NS(=O)(=O)Cc2ccccc2)cc1Cl | inconclusive [activator, single point] |
| O=C(c1ccc(C(F)(F)F)cc1)N1CCC(c2nc(-c3ccc(S(=O)(=O)N4CCCC4)cc3)no2)CC1 | inactive |
| Cc1ccc(C)c(N2CCN(C(=O)CN3CCSc4ccc(S(=O)(=O)N(C)C)cc43)CC2)c1 | inactive |
| CCn1c(C)cc(C(=O)CSc2nnnn2C2CCCC2)c1C | active: 20 µM |
| CCCCCC(=O)Nc1sc(C)c(C)c1C#N | inconclusive [activator, single point] |
| C[C@]12CC[C@@H]3c4ccc(O)cc4CC[C@H]3[C@@H]1CCC2=O | active: 4.47 µM |
| COc1nc(-c2ccc(C)cc2)ccc1-c1noc(-c2ccccc2Br)n1 | inactive |
| O=S(=O)(c1ccccc1)N(Cc1ccccc1)c1ccccn1 | inconclusive [activator, full curve, poor fit] |
| CSc1nc(C(=O)N2CCc3c([nH]c4ccccc34)C2c2ccccn2)cs1 (centres undefined) | inconclusive [activator, single point] |
| C/C(=N\NC(=O)c1ccc(N(C)C)cc1)c1ccc(C)cc1C | inconclusive [activator, partial curve] |
| O=C(O)c1ccc(SCc2cnc(Cl)s2)cc1 | inconclusive [activator, single point] |
| CC1=C(c2ccc(C)c(C)c2)S(=O)(=O)N=C1N1CCC(C(=O)NCCc2ccc(Cl)cc2)CC1 | inactive |
| Cc1c(C(=O)N2CCCC2(C)C(=O)NCC(C)C)oc2ccccc12 (centres undefined) | inconclusive [activator, full curve, poor fit] |
| CCOc1ccc(NC(=O)N2CC=C(c3c[nH]c4ccccc34)CC2)cc1 | inactive |
| Cc1cc(C)cc(NC(=O)c2ccc(CSc3nnc(C)s3)cc2)c1 | inconclusive [activator, single point] |
| COc1ccccc1NC(=O)c1ccc2c(Cl)c3c(nc2c1)CCCC3 | inconclusive [activator, partial curve] |
| CC(C)CC(=O)NC(=S)NCCc1ccccc1 | inconclusive [activator, single point] |
| CN(Cc1ccc([N+](=O)[O-])cc1)c1ccccc1 | inconclusive [activator, single point] |
| COc1ccc(C(=O)NCCc2c[nH]c3ccc(OC)cc23)cc1 | inconclusive [activator, single point] |
| Cc1cc(C)n(-c2nc(NCCCO)c3c4c(sc3n2)CCCC4)n1 | inconclusive [activator, partial curve] |
| O=C(CN1CCCN(Cc2ccc(Cl)cc2)S1(=O)=O)Nc1ccccc1F | inconclusive [activator, partial curve] |

| Structure (SMILES) | Potency |
| --- | --- |
| CC(=O)C(Sc1ccc2nnc(-c3ccc(C)cc3)n2n1)C(C)=O | inconclusive [activator, single point] |
| C/C(=N/NC(=S)Nc1cccc(C)c1)c1cccc([N+](=O)[O-])c1 | inconclusive [activator, partial curve] |
| Cc1ccc(CC(=O)Nc2nc3ccccc3s2)cc1 | inconclusive [activator, partial curve] |
| Cc1nc(N2CCCC2)c2c(C(=O)Nc3cccc(Cl)c3C)c(C)oc2n1 | inconclusive [activator, single point] |
| Cc1cccnc1NC(=O)COc1ccc2oc3c(c2c1)CCCC3 | inconclusive [activator, single point] |
| CCCCNC(=S)NC(=O)c1ccc([N+](=O)[O-])cc1 | inconclusive [activator, partial curve] |
| Cc1nn(Cc2ccc(C(=O)Nc3ccccc3F)cc2)c(C)c1Cl | inconclusive [activator, full curve] |
| Cc1onc2c(=O)n(-c3ccccc3)nc(-c3ccccc3)c12 | inconclusive [activator, single point] |
| O=C(COC(=O)CSCC(=O)N1CCCCC1)Nc1ccc(Cl)cc1 | inconclusive [activator, partial curve] |
| OCCNc1nc(N2CCN(Cc3ccccc3)CC2)nc2ccccc12 | inconclusive [activator, partial curve] |
| CCOC(=O)c1ccc2nc(NC(=O)C(C)C)sc2c1 | active: 10 µM |
| COc1ccc(Cl)cc1NC(=O)CN(C)C(=O)c1sccc1-c1ccccc1 | inconclusive [activator, single point] |
| CC(=O)c1ccc(Nc2nc(-c3sc(C)nc3C)cs2)cc1 | inconclusive [activator, full curve] |
| O=C(NCCCc1nc2ccccc2n1Cc1cccc(Cl)c1)c1ccco1 | inconclusive [activator, partial curve, poor fit] |
| COC(=O)c1sccc1NC(=O)c1ccc(OC)cc1 | inconclusive [activator, full curve, poor fit] |
| CCOc1ccccc1NS(=O)(=O)c1ccc(Br)s1 | inactive |
| COC(=O)c1sccc1NC(=S)N1CCN(c2ccccc2)CC1 | inconclusive [activator, partial curve] |
| CC(C)NC(=O)C1CC(=O)N(C(C)c2ccccc2)C1 (centres undefined) | inactive |
| COc1ccc(CNC(=O)N2CCN(c3cccc(Cl)c3)CC2)cc1OC | inconclusive [activator, single point] |
| O=C(Nc1ccccc1)C1=C[C@H](c2ccc(C(F)(F)F)cc2)C[C@H](OCc2ccc(CO)cc2)O1 | inconclusive [activator, partial curve] |
| O=C(CSc1nnc(-c2ccc(F)cc2)c2ccccc12)NCC1CCCO1 (centres undefined) | inconclusive [activator, partial curve] |
| O=C1CSC(c2ccc(Cl)cc2)N1c1cccnc1 (centres undefined) | inactive |
| CCc1ccc(OCCCSc2nc(-c3ccc(C(C)(C)C)cc3)nc3cc(=O)[nH]n23)cc1 | inactive |

Source: PubChem BioAssay AID652104 (National Center for Advancing Translational Sciences (NCATS), 2013)
